Measurements: patent US4363922A, “Esters of antibiotic nodusmicin” (priority 1981, dated 1982)

What was measured:
S.aureus UC 80 = experiment: Dipped disc agar diffusion assay, S. aureus; set-up: key: NZ: no zone; conditions: 12.7 mm paper disc, 16 hours
S.lutea UC-130 = experiment: Dipped disc agar diffusion assay, S. lutea; set-up: key: NZ: no zone; conditions: 12.7 mm paper disc, 16 hours

Compound | Agar Diffusion 1 mg./ml. S.aureus UC 80 (inhibition zone) (S.aureus UC 80) | Agar Diffusion 1 mg./ml. S.lutea UC-130 (inhibition zone) (S.lutea UC-130)
COC1CC2C=CC3C4OC2(C(C)=CC(C)C(C(C)O)OC1=O)C3C(O)C(C)C4OC(=O)c1ccc([N+](=O)[O-])o1 (stereo not drawn) [U-60,990, 9-O--5-Nitrofuroyl] | NZ | –
COC1CC2C=CC3C4OC2(C(C)=CC(C)C(C(C)O)OC1=O)C3C(O)C(C)C4OC(=O)c1ccc([N+](=O)[O-])[nH]1 (stereo not drawn) [U-61,427, 9-O--5-Nitropyrrole-2-carbonyl-] | NZ | –
9,11-O-Dipicolinoyl- | NZ | NZ
COC1CC2C=CC3C4OC2(C(C)=CC(C)C(C(C)O)OC1=O)C3C(O)C(C)C4O (stereo not drawn) [U-59,761, nodusmicin] | NZ | –
COC1CC2C=CC3C4OC2(C(C)=CC(C)C(C(C)O)OC1=O)C3C(O)C(C)C4OC(=O)c1cnccn1 (stereo not drawn) [U-61,264, 9-O--Pyrrazine-2-carbonyl] | NZ | –
COC1CC2C=CC3C4OC2(C(C)=CC(C)C(C(C)O)OC1=O)C3C(O)C(C)C4OC(=O)c1ccncc1 (stereo not drawn) [U-60,925, 9-O--Isonicotinoyl] | NZ | –
COC1CC2C=CC3C4OC2(C(C)=CC(C)C(C(C)O)OC1=O)C3C(O)C(C)C4OC(=O)c1ccccn1 (stereo not drawn) [U-60,909, 9-O--Picolinoyl-] | NZ | –
COC1CC2C=CC3C4OC2(C(C)=CC(C)C(C(C)O)OC1=O)C3C(O)C(C)C4OC(=O)c1cc2ccccc2[nH]1 (stereo not drawn) [U-61,273, 9-O--Indole-2-carbonyl-] | NZ | –
COC1CC2C=CC3C4OC2(C(C)=CC(C)C(C(C)O)OC1=O)C3C(O)C(C)C4OC(=O)c1cccn1C (stereo not drawn) [U-60,988, 9-O--N--Methylpyrrole-2-carbonyl-] | NZ | –
COC1CC2C=CC3C4OC2(C(C)=CC(C)C(C(C)O)OC1=O)C3C(O)C(C)C4OC(=O)c1cccnc1 (stereo not drawn) [U-60,906, 9-O--Nicotinoyl-] | NZ | –
COC1CC2C=CC3C4OC2(C(C)=CC(C)C(C(C)O)OC1=O)C3C(OC(=O)c1ccco1)C(C)C4O (stereo not drawn) [U-60,905, 11-O--Furoyl-] | NZ | –
